According to article PMC4336329 (PLoS ONE, 2015):
Hit rate of the full screen: of about 310,000 compounds, about 2,200 (0.71%) showed an effect of 50% or more. Effects have a minus sign here. The list shows a part of the results.

The compounds below were run against human ether-à-go-go-related gene (hERG) potassium channel (human, UniProt Q12809) (assay: primary screen, population patch clamp on CHO cells stably expressing hERG).
Chain of human ether-à-go-go-related gene (hERG) potassium channel (Q12809 whole entry, looked up): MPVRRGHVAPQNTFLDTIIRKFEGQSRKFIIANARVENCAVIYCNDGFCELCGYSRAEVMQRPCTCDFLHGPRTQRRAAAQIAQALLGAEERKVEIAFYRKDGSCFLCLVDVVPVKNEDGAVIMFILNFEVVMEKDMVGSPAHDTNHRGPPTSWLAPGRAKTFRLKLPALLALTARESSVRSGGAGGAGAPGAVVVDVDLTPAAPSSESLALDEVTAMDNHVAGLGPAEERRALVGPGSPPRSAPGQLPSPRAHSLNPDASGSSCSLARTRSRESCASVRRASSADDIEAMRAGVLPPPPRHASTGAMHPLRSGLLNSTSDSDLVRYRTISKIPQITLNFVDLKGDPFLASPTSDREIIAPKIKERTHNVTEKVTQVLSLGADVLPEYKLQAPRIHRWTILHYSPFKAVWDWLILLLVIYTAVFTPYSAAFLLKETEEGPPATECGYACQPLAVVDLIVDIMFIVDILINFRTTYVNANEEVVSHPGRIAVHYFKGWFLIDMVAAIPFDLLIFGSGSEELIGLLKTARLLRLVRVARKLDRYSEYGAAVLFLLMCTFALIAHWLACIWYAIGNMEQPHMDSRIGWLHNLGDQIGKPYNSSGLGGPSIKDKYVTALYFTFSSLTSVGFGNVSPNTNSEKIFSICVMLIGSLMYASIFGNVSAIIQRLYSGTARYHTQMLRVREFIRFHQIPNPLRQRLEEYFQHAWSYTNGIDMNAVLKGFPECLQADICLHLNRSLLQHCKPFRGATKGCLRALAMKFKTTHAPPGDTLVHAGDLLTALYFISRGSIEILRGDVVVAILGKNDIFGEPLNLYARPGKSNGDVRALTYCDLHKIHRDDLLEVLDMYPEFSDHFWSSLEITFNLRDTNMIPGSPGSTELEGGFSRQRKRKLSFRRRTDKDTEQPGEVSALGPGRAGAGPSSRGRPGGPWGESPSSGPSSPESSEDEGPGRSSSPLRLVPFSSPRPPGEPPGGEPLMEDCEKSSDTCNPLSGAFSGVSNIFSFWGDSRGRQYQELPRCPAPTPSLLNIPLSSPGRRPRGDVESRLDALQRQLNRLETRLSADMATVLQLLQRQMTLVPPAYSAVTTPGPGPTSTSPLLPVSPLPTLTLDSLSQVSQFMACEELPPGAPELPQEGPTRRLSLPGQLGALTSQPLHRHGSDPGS
Cc1ccc(S(=O)(=O)N2CCC(C(=O)OC(C)C(=O)NC(N)=O)CC2)cc1C (stereo not shown) was tested, and the “hERG current change (%, negative = inhibition) at 1uM” value was 6.59%.
Cc1ccc(S(=O)(=O)N(C)c2ccc3c(ncn3C)c2[N+](=O)[O-])cc1 was tested, and the “hERG current change (%, negative = inhibition) at 1uM” value was -3.48%.
COc1ccccc1CN1CCCC(CNC(=O)c2cccc3ccccc23)C1 (stereo not shown) was tested, and the “hERG current change (%, negative = inhibition) at 1uM” value was 5.37%.
With Cc1nc(CS(=O)(=O)c2ccc(Cl)cc2)cc(N2CCOCC2)n1 the “hERG current change (%, negative = inhibition) at 1uM” value was 13%.
For CCn1cc(Br)c(C(=O)Nc2ccc(Cl)c(Cl)c2)n1, the “hERG current change (%, negative = inhibition) at 1uM” value was 12.6%.
In the case of CC1CCN(CCC(=O)N2CCCc3c2c(=O)oc2ccc(O)cc32)CC1, the “hERG current change (%, negative = inhibition) at 1uM” value is reported as -11.5%.
O=C(Nc1ccc2c(c1)OCO2)O[C@@H]1C[C@H]2CCCC(=O)N3CC[C@@H](C1)[C@@H]23 was tested, and the “hERG current change (%, negative = inhibition) at 1uM” value was 8.71%.
For Cc1oc(CN2CCOCC2)cc1C(=O)O, the “hERG current change (%, negative = inhibition) at 1uM” value was 7.66%.
With CC1=C(C(=O)NC(C)c2ccccc2)C2(CCC(C)CC2)OC1=O (stereo not shown) the “hERG current change (%, negative = inhibition) at 1uM” value was 0.922%.
For COc1ccc(NC(=O)NC2CCCc3ccccc32)c(OC)c1 (stereo not shown), the “hERG current change (%, negative = inhibition) at 1uM” value was 8.36%.
With Cc1[nH]c2ccccc2c1C(=O)COC(=O)c1c(-c2ccccc2Cl)noc1C the “hERG current change (%, negative = inhibition) at 1uM” value was 1.94%.
For CCCCCC1=NN2C(=O)CC(=O)N=C2S1, the “hERG current change (%, negative = inhibition) at 1uM” value was 5.37%.
Cc1ccccc1-c1noc(CCC(=O)NCc2ccco2)n1 was tested, and the “hERG current change (%, negative = inhibition) at 1uM” value was 2.3%.
In the case of Cc1cccc2c1cnn2C(=O)Nc1ccc(Br)cc1F, the “hERG current change (%, negative = inhibition) at 1uM” value is reported as 20.5%.
For CCn1cc(C(=O)O)c(=O)c2cc(F)c(N3CCN(C(=S)NC(=O)c4ccc(F)cc4)CC3)cc21, the “hERG current change (%, negative = inhibition) at 1uM” value was 4.19%.
For CCOc1ccc(NC(=O)CC2C(=O)N(C)C(=S)N2Cc2ccco2)cc1 (stereo not shown), the “hERG current change (%, negative = inhibition) at 1uM” value was -13.2%.
CC(=O)O.COc1ccc(OC)c(C2CC(=O)C(C)C(c3cc(OC)ccc3OC)N2)c1 (stereo not shown) was tested, and the “hERG current change (%, negative = inhibition) at 1uM” value was 7.49%.
In the case of C=CCNC(=O)c1onc(CSc2ccccc2CC)c1C(=O)O, the “hERG current change (%, negative = inhibition) at 1uM” value is reported as 9.32%.
O=C(Nc1nnc(COc2ccc(Br)cc2)s1)c1ccco1 was tested, and the “hERG current change (%, negative = inhibition) at 1uM” value was 15.9%.
In the case of COc1ccccc1N1CCN(CC(=O)Nc2sccc2C#N)CC1, the “hERG current change (%, negative = inhibition) at 1uM” value is reported as 2.93%.
In the case of CN(C)c1ccc(/C=N/NC(=O)CCC(=O)NCc2ccccc2)cc1, the “hERG current change (%, negative = inhibition) at 1uM” value is reported as 8.58%.
In the case of O=S(=O)(c1c(F)cccc1F)N1CCCC2CCCCC21 (stereo not shown), the “hERG current change (%, negative = inhibition) at 1uM” value is reported as 12.7%.
In the case of COC(=O)c1ccc(OCC(O)Cn2nnc3ccccc32)cc1 (stereo not shown), the “hERG current change (%, negative = inhibition) at 1uM” value is reported as 1.7%.
CC(C)c1ccc(NC(=O)CSC(C)c2nc3ccccc3c(=O)[nH]2)cc1 (stereo not shown) was tested, and the “hERG current change (%, negative = inhibition) at 1uM” value was 5.48%.
COC(=O)C1=CO[C@@H](C)[C@@H]2CN(CCc3c[nH]c4ccccc34)CC[C@H]12 was tested, and the “hERG current change (%, negative = inhibition) at 1uM” value was -16.6%.
